# In the supplement of paper PMC12423691:
# The other results are listed elsewhere or left out. Binding of human transcription factors and regulators to the viral nucleoprotein by AlphaScreen, crude cell-free proteins, amounts not normalised, one pass. Fold of the Venus control; higher = more signal. No active / inactive call. Single-pass screen; sequences are the whole Swiss-Prot entries looked up by name.
# B1: TRIM37, O94972 (protein)
# chain: MDEQSVESIAEVFRCFICMEKLRDARLCPHCSKLCCFSCIRRWLTEQRAQCPHCRAPLQLRELVNCRWAEEVTQQLDTLQLCSLTKHEENEKDKCENHHEKLSVFCWTCKKCICHQCALWGGMHGGHTFKPLAEIYEQHVTKVNEEVAKLRRRLMELISLVQEVERNVEAVRNAKDERVREIRNAVEMMIARLDTQLKNKLITLMGQKTSLTQETELLESLLQEVEHQLRSCSKSELISKSSEILMMFQQVHRKPMASFVTTPVPPDFTSELVPSYDSATFVLENFSTLRQRADPVYSPPLQVSGLCWRLKVYPDGNGVVRGYYLSVFLELSAGLPETSKYEYRVEMVHQSCNDPTKNIIREFASDFEVGECWGYNRFFRLDLLANEGYLNPQNDTVILRFQVRSPTFFQKSRDQHWYITQLEAAQTSYIQQINNLKERLTIELSRTQKSRDLSPPDNHLSPQNDDALETRAKKSACSDMLLEGGPTTASVREAKEDEEDEEKIQNEDYHHELSDGDLDLDLVYEDEVNQLDGSSSSASSTATSNTEENDIDEETMSGENDVEYNNMELEEGELMEDAAAAGPAGSSHGYVGSSSRISRRTHLCSAATSSLLDIDPLILIHLLDLKDRSSIENLWGLQPRPPASLLQPTASYSRKDKDQRKQQAMWRVPSDLKMLKRLKTQMAEVRCMKTDVKNTLSEIKSSSAASGDMQTSLFSADQAALAACGTENSGRLQDLGMELLAKSSVANCYIRNSTNKKSNSPKPARSSVAGSLSLRRAVDPGENSRSKGDCQTLSEGSPGSSQSGSRHSSPRALIHGSIGDILPKTEDRQCKALDSDAVVVAVFSGLPAVEKRRKMVTLGANAKGGHLEGLQMTDLENNSETGELQPVLPEGASAAPEEGMSSDSDIECDTENEEQEEHTSVGGFHDSFMVMTQPPDEDTHSSFPDGEQIGPEDLSFNTDENSGR
# B2: FOXD4L1, Q9NU39 (protein)
# chain: MNLPRAERPRSTPQRSLRDSDGEDGKIDVLGEEEDEDEVEDEEEEASQKFLEQSLQPGLQVARWGGVALPREHIEGGGPSDPSEFGTEFRAPPRSAAASEDARQPAKPPYSYIALITMAILQSPHKRLTLSGICAFISGRFPYYRRKFPAWQNSIRHNLSLNDCFVKIPREPGHPGKGTYWSLDPASQDMFDNGSFLRRRKRFKRHQLTPGAHLPHPFPLPAAHAALHNPRPGPLLGAPALPQPVPGAYPNTAPGRRPYALLHPHPPRYLLLSAPAYAGAPKKAEGADLATPGTLPVLQPSLGPQPWEEGKGLASPPGGGCISFSIESIMQGVRGAGTGAAQSLSPTAWSYCPLLQRPSSLSDNFAATAAASGGGLRQRLRSHQGRGAGRAPVGRVGAAAVSGGGRGL
# B3: CREB3L1, Q96BA8 (protein)
# chain: MDAVLEPFPADRLFPGSSFLDLGDLNESDFLNNAHFPEHLDHFTENMEDFSNDLFSSFFDDPVLDEKSPLLDMELDSPTPGIQAEHSYSLSGDSAPQSPLVPIKMEDTTQDAEHGAWALGHKLCSIMVKQEQSPELPVDPLAAPSAMAAAAAMATTPLLGLSPLSRLPIPHQAPGEMTQLPVIKAEPLEVNQFLKVTPEDLVQMPPTPPSSHGSDSDGSQSPRSLPPSSPVRPMARSSTAISTSPLLTAPHKLQGTSGPLLLTEEEKRTLIAEGYPIPTKLPLTKAEEKALKRVRRKIKNKISAQESRRKKKEYVECLEKKVETFTSENNELWKKVETLENANRTLLQQLQKLQTLVTNKISRPYKMAATQTGTCLMVAALCFVLVLGSLVPCLPEFSSGSQTVKEDPLAADGVYTASQMPSRSLLFYDDGAGLWEDGRSTLLPMEPPDGWEINPGGPAEQRPRDHLQHDHLDSTHETTKYLSEAWPKDGGNGTSPDFSHSKEWFHDRDLGPNTTIKLS
# B4: TNFSF11, O14788 (protein)
# chain: MRRASRDYTKYLRGSEEMGGGPGAPHEGPLHAPPPPAPHQPPAASRSMFVALLGLGLGQVVCSVALFFYFRAQMDPNRISEDGTHCIYRILRLHENADFQDTTLESQDTKLIPDSCRRIKQAFQGAVQKELQHIVGSQHIRAEKAMVDGSWLDLAKRSKLEAQPFAHLTINATDIPSGSHKVSLSSWYHDRGWAKISNMTFSNGKLIVNQDGFYYLYANICFRHHETSGDLATEYLQLMVYVTKTSIKIPSSHTLMKGGSTKYWSGNSEFHFYSINVGGFFKLRSGEEISIEVSNPSLLDPDQDATYFGAFKVRDID
# B5: ALK, Q9UM73 (protein)
# chain: MGAIGLLWLLPLLLSTAAVGSGMGTGQRAGSPAAGPPLQPREPLSYSRLQRKSLAVDFVVPSLFRVYARDLLLPPSSSELKAGRPEARGSLALDCAPLLRLLGPAPGVSWTAGSPAPAEARTLSRVLKGGSVRKLRRAKQLVLELGEEAILEGCVGPPGEAAVGLLQFNLSELFSWWIRQGEGRLRIRLMPEKKASEVGREGRLSAAIRASQPRLLFQIFGTGHSSLESPTNMPSPSPDYFTWNLTWIMKDSFPFLSHRSRYGLECSFDFPCELEYSPPLHDLRNQSWSWRRIPSEEASQMDLLDGPGAERSKEMPRGSFLLLNTSADSKHTILSPWMRSSSEHCTLAVSVHRHLQPSGRYIAQLLPHNEAAREILLMPTPGKHGWTVLQGRIGRPDNPFRVALEYISSGNRSLSAVDFFALKNCSEGTSPGSKMALQSSFTCWNGTVLQLGQACDFHQDCAQGEDESQMCRKLPVGFYCNFEDGFCGWTQGTLSPHTPQWQVRTLKDARFQDHQDHALLLSTTDVPASESATVTSATFPAPIKSSPCELRMSWLIRGVLRGNVSLVLVENKTGKEQGRMVWHVAAYEGLSLWQWMVLPLLDVSDRFWLQMVAWWGQGSRAIVAFDNISISLDCYLTISGEDKILQNTAPKSRNLFERNPNKELKPGENSPRQTPIFDPTVHWLFTTCGASGPHGPTQAQCNNAYQNSNLSVEVGSEGPLKGIQIWKVPATDTYSISGYGAAGGKGGKNTMMRSHGVSVLGIFNLEKDDMLYILVGQQGEDACPSTNQLIQKVCIGENNVIEEEIRVNRSVHEWAGGGGGGGGATYVFKMKDGVPVPLIIAAGGGGRAYGAKTDTFHPERLENNSSVLGLNGNSGAAGGGGGWNDNTSLLWAGKSLQEGATGGHSCPQAMKKWGWETRGGFGGGGGGCSSGGGGGGYIGGNAASNNDPEMDGEDGVSFISPLGILYTPALKVMEGHGEVNIKHYLNCSHCEVDECHMDPESHKVICFCDHGTVLAEDGVSCIVSPTPEPHLPLSLILSVVTSALVAALVLAFSGIMIVYRRKHQELQAMQMELQSPEYKLSKLRTSTIMTDYNPNYCFAGKTSSISDLKEVPRKNITLIRGLGHGAFGEVYEGQVSGMPNDPSPLQVAVKTLPEVCSEQDELDFLMEALIISKFNHQNIVRCIGVSLQSLPRFILLELMAGGDLKSFLRETRPRPSQPSSLAMLDLLHVARDIACGCQYLEENHFIHRDIAARNCLLTCPGPGRVAKIGDFGMARDIYRASYYRKGGCAMLPVKWMPPEAFMEGIFTSKTDTWSFGVLLWEIFSLGYMPYPSKSNQEVLEFVTSGGRMDPPKNCPGPVYRIMTQCWQHQPEDRPNFAIILERIEYCTQDPDVINTALPIEYGPLVEEEEKVPVRPKDPEGVPPLLVSQQAKREEERSPAAPPPLPTTSSGKAAKKPTAAEISVRVPRGPAVEGGHVNMAFSQSNPPSELHKVHGSRNKPTSLWNPTYGSWFTEKPTKKNNPIAKKEPHDRGNLGLEGSCTVPPNVATGRLPGASLLLEPSSLTANMKEVPLFRLRHFPCGNVNYGYQQQGLPLEAATAPGAGHYEDTILKSKNSMNQPGP
# B6: ZBTB4, Q9P1Z0 (protein)
# chain: MPPPAEVTDPSHAPAVLRQLNEQRLRGLFCDVTLIAGDTKFPAHRSVLAASSPFFREALLTSAPLPLPPATGGAAPNPATTTAASSSSSSSSSSSSSSSSASSSSSSSSSSPPPASPPASSPPRVLELPGVPAAAFSDVLNFIYSARLALPGGGGDGAAVAEIGALGRRLGISRLQGLGEGGDAWVPPTPAPMATSQPEEDSFGPGPRPAGEWEGDRAEAQAPDLQCSLPRRPLPCPQCGKSFIHPKRLQTHEAQCRRGASTRGSTGLGAGGAGPGGPAGVDASALPPPVGFRGGPEHVVKVVGGHVLYVCAACERSYVTLSSLKRHSNVHSWRRKYPCRYCEKVFALAEYRTKHEVWHTGERRYQCIFCWETFVTYYNLKTHQRAFHGISPGLLASEKTPNGGYKPKLNTLKLYRLLPMRAAKRPYKTYSQGAPEAPLSPTLNTPAPVAMPASPPPGPPPAPEPGPPPSVITFAHPAPSVIVHGGSSSGGGGSGTASTGGSQAASVITYTAPPRPPKKREYPPPPPEPAATPTSPATAVSPATAAGPAMATTTEEAKGRNPRAGRTLTYTAKPVGGIGGGGGPPTGAGRGPSQLQAPPPLCQITVRIGEEAIVKRRISETDLRPGELSGEEMEESEEDEEEEDEEEEEEDEEESKAGGEDQLWRPYYSYKPKRKAGAAGGASVGGSGLPRGRRPPRWRQKLERRSWEETPAAESPAGRARTERRHRCGDCAQTFTTLRKLRKHQEAHGGGSHSSRAGRRPSTRFTCPHCAKVCKTAAALSRHGQRHAAERPGGTPTPVIAYSKGSAGTRPGDVKEEAPQEMQVSSSSGEAGGGSTAAEEASETASLQDPIISGGEEPPVVASGGSYVYPPVQEFPLALIGGGREPGGGRGKSGSEGPVGAGEGDRMEGIGAAKVTFYPEPYPLVYGPQLLAAYPYNFSNLAALPVALNMVLPDEKGAGALPFLPGVFGYAVNPQAAPPAPPTPPPPTLPPPIPPKGEGERAGVERTQKGDVG
# B7: SMAD9, O15198 (protein)
# chain: MHSTTPISSLFSFTSPAVKRLLGWKQGDEEEKWAEKAVDSLVKKLKKKKGAMDELERALSCPGQPSKCVTIPRSLDGRLQVSHRKGLPHVIYCRVWRWPDLQSHHELKPLECCEFPFGSKQKEVCINPYHYRRVETPVLPPVLVPRHSEYNPQLSLLAKFRSASLHSEPLMPHNATYPDSFQQPPCSALPPSPSHAFSQSPCTASYPHSPGSPSEPESPYQHSVDTPPLPYHATEASETQSGQPVDATADRHVVLSIPNGDFRPVCYEEPQHWCSVAYYELNNRVGETFQASSRSVLIDGFTDPSNNRNRFCLGLLSNVNRNSTIENTRRHIGKGVHLYYVGGEVYAECVSDSSIFVQSRNCNYQHGFHPATVCKIPSGCSLKVFNNQLFAQLLAQSVHHGFEVVYELTKMCTIRMSFVKGWGAEYHRQDVTSTPCWIEIHLHGPLQWLDKVLTQMGSPHNPISSVS
# Target: nucleoprotein N of Crimean-Congo hemorrhagic fever virus
# Assay: AlphaScreen luminescence signal relative to Venus negative control (fold); higher = stronger binding to CCHFV N
# Method: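 AlphaScreen binding of cell-free made, FLAG-GST-tagged human transcription factors and regulators (crude translation products) to biotinylated N protein; signal as fold of the FLAG-GST-Venus control. One pass.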
row,Binder,AlphaScreen luminescence signal
1,B1,1.44
2,B2,2.51
3,B3,2.05
4,B4,2.65
5,B5,3.35
6,B6,6.56
7,B7,1.95
